Data from article PMC6919601, “Identification of Plasmodium dipeptidyl aminopeptidase allosteric inhibitors by high throughput screening” (PLoS ONE, 2019).
The whole screen tested about 110,000 compounds, of which about 230 (0.21%) showed an effect of 50% or more. This is one part of the list.

Molecular target: DPAP1 (Plasmodium falciparum, UniProt Q8IIJ9)
Assay: primary screen, percent inhibition; read by cleavage of a fluorogenic dipeptide substrate; higher = more effect of the substance
Design: species or system P. falciparum D10 trophozoite lysates; single well
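Also: 30 min substrate incubation versus DMSO and 10 µM JCP410 controls.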

DPAP1, sequence (Q8IIJ9 whole entry, looked up): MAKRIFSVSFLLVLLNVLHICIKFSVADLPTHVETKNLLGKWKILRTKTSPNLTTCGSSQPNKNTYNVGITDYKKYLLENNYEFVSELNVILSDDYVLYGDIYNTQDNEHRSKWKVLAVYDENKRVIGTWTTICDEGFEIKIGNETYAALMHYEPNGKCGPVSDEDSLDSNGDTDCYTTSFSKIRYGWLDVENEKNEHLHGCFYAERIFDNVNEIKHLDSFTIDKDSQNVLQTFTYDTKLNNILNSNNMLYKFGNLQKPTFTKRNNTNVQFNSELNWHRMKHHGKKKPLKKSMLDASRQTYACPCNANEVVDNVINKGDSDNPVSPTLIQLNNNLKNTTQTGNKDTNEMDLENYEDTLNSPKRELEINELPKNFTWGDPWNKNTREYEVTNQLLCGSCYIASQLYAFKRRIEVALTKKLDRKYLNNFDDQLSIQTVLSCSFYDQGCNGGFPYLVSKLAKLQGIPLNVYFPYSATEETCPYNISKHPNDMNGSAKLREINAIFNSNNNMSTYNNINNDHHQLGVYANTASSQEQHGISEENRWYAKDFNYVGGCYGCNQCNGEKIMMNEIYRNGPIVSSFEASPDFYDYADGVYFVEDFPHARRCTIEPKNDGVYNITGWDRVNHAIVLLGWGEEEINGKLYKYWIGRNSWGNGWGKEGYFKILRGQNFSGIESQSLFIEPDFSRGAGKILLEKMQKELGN

Row | Structure (SMILES) | % Inhibition @ 10 uM [%]
1 | COc1ccc(/C=C2/CCCC3=C2OC(N)=C(C#N)C3c2ccc(OC)cc2OC)c(OC)c1 (stereo not drawn) | 4.7
2 | Cn1c(C(=O)N2CCCC(C(=O)N3CCC(Cc4ccccc4)CC3)C2)cc2sccc21 (stereo not drawn) | -5.03
3 | O=C(NCc1cccnc1)C(=O)NC1CC1 | -1.33
4 | C=CCn1c(=N)c(C(=O)NCCCOC)cc2c(=O)n3cccc(C)c3nc21 | -1.47
5 | Cc1cccc(CCNC(=O)CCc2nnc3n(Cc4ccc(F)cc4)c(=O)c4ccccc4n23)c1 | -2.42
6 | COc1ccc(N/C=C(/C#N)c2nc(-c3ccc(Br)cc3)cs2)cc1 | 2.01
7 | CSc1cccc(NC(=O)CN(c2ccc(F)cc2)S(=O)(=O)c2ccc3c(c2)OCCO3)c1 | -0.99
8 | O=Cc1cn(CC(=O)NCCC2=CCCCC2)c2ccccc12 | 2.35
9 | N#CC1=C(N)N(c2nc[nH]n2)C2=C(C(=O)CC(c3ccccc3)C2)C1c1cccnc1 (stereo not drawn) | 3.99
10 | CC(C)CCNC(=O)Cn1cc(S(=O)(=O)Cc2ccccc2F)c2ccccc21 | 1.76
11 | CCOC(=O)c1c(NC(=O)CSc2nc3nncc-3c(O)n2-c2ccccc2)sc(C)c1C | 2.46
12 | CSc1ccc(CNCCSc2nnnn2-c2ccccc2)cc1 | 2.05
13 | CCc1c(CSC(=N)N)csc1C | -4.51
14 | COc1ccc(NC(=O)CN(c2ccc(F)cc2)S(=O)(=O)c2ccccc2)cc1Cl | -10
15 | N#CCNC(=O)[C@H](Cc1cc(I)c(O)c(I)c1)NC(=O)c1ccc(Br)cc1 | -3.04
16 | COc1ccc(C2CC(c3cccc(Br)c3)Nc3ncnn32)c(OC)c1 (stereo not drawn) | -5.19
17 | COc1cc(C(=O)Nc2ccccc2C(=O)Nc2ccccc2)cc(OC)c1OC | 0.83
18 | O=c1/c(=C/c2cccc3ccccc23)sc2nc(C3COc4ccccc4O3)nn12 (stereo not drawn) | -3.33
19 | COc1cccc2c1cc1c(=O)n(CC(=O)NCCCN3CCOCC3)nc(C)n12 | 1.68
20 | CC1(C)CC(=O)c2c(nc3ccccc3c2N)C1 | -1.42
21 | CCOc1cc(-c2cc(N)n(S(=O)(=O)c3ccc(OC)c(OC)c3)n2)cc(OCC)c1OCC | 2.34
22 | CCCc1[nH]nc2c1C(c1ccc(Br)cc1)C(C#N)=C(N)O2 (stereo not drawn) | -0.661
23 | CN1C(=O)/C(=C/c2ccccc2)S/C1=N/c1cccc(C(=O)O)c1 | 5.42
24 | CCOC(=O)C1=C(C)N=c2s/c(=C\c3cccc(OC)c3)c(=O)n2C1c1ccccc1 (stereo not drawn) | -6.88

Row | Structure (SMILES) | % Inhibition @ 10 uM [%]
25 | Cc1nn(-c2ccccc2)nc1C(=O)NCCCN1CCOCC1 | -2.05
26 | Cn1cccc1/C=C1\SC(=O)N(CC(=O)Nc2ccc(F)cc2)C1=O | 6.7
27 | CC(CCc1ccccc1)NCC(C)(C)CN(C)C (stereo not drawn) | -3.35
28 | CCOc1ccccc1N(CC(=O)N1CCN(Cc2ccccc2)CC1)S(C)(=O)=O | -1.84
29 | Cc1cc(C(F)(F)F)nn1CC(=O)Nc1ccccc1F | 3.74
30 | CCOc1ccc(N2C(=O)c3ccccc3C2=O)cc1 | 8.19
31 | COc1cc(OC)cc(C2C(C#N)=C(N)OC3=C2C(=O)CC(C)(C)C3)c1 (stereo not drawn) | -8.28
32 | CCOC(=O)CSc1nc(-c2ccccc2)cc(-c2ccc(OC)cc2)c1C#N | 3.06
33 | CC1CCN(C(=O)CCCN2C(=O)c3cccc4cccc(c34)C2=O)CC1 | -7.31
34 | CC1CCCN(C(=O)c2cc3c(O)nc4ccccc4c3s2)C1 (stereo not drawn) | 6.08
35 | CCOc1ccc(-c2nonc2NC(=O)COc2ccc(C)cc2)cc1OCC | -1.47
36 | Cc1ccc(NC(=O)CCN2CCCCC2)cc1Br | 1.27
37 | O=C(Nc1ccc(Cl)cc1C(=O)NCCO)c1ccc(Cl)cc1Cl | -0.67
38 | O=C(CSCc1cnn(-c2ccccc2)c1-n1cccc1)NCCc1ccco1 | 1.63
39 | Cn1c(=O)[nH]c(=O)c2nc(-c3ccccc3)c(-c3ccccc3)nc21 | -2.85
40 | Cc1ccccc1-c1csc(C(=O)N[C@@H](CC(C)C)C(=O)NCC#N)c1 | -4.72
41 | CC12CCC(C(=O)Nc3ccncc3)(C(=O)C1=O)C2(C)C (stereo not drawn) | -1.65
42 | CCOC(=O)N1CCC(NC(=O)c2cnn(-c3cccc(F)c3)c2C2CCNCC2)CC1 | 0.882
43 | CCc1cc2c(SCC(=O)c3ccccc3)ncnc2s1 | -0.178
44 | CN(C)CCN(Cc1ccccc1)Cc1ccccc1C(F)(F)F | -5.44
45 | COC(=O)c1ccc(OCc2ccccc2Cl)c(OC)c1 | -1.4
46 | CCCC[C@H](NC(=O)C(NC(=O)OCc1ccccc1)C1CCCCC1)C(=O)CO (stereo partly drawn) | -0.778
47 | CC(C)OCCCNC(=O)C1CCN(c2nc3ccccc3n3cccc23)CC1 | 3.17
48 | O=C(NCCc1ccc(Cl)cc1)c1cc2c(s1)-c1ccccc1S(=O)(=O)C2 | -6.09
